± gives the standard deviation of the averaged measurements. This is one part of the list.

In the experiment the test system is PfAP2-LT AP2 domain (GST-tagged). The experiment is described as follows: gcPBM binding intensity (ln(normalized median fluorescence intensity)); higher = stronger DNA binding. The gist of the method: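 After 1 h on an Agilent 4 × 180k array of primer-extended double-stranded 36-bp intergenic genomic probes and negative controls, bound GST-tagged P. falciparum DNA-binding domains were detected with Alexa488 anti-GST antibody and scanned at 488 nm. The domains had been expressed in E. coli, and binding took place in 1× PBS with 1% milk, 0.2 mg/ml BSA, 0.5% salmon testes DNA and 0.03% Triton X-100. Binding intensity is the highest Masliner-normalised natural-log median intensity across replicate spots of either probe orientation.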
For “TAATTATAGGTATACACACACATACATTTACATAAC [CACACA_site7509]”, the “gcPBM binding intensity (ln)” value was determined as 9.46 ± 0.36.
To “TTTTATTATTTTTGTTGTACAGTATACTGTATGATT [XGTACX_site5359]” belongs 8.98 ± 0.45; to “AAAAAAAAGGAAAATAAAAATAAAAAAAAATAATAA [XGTACX_negctrl_site601]”, 8.55 ± 0.56.
The value for “TGAGAAAAAAAGAATTGTACATATAAAATATAACAA [XGTACX_site3500]” was 8.59 ± 0.44; that for “TTATCACATTATTGCACACACATAAAGAAAAAAATA [CACACA_site2841]” was 9.26 ± 0.35; that for “AAAGATACTTTCCTCAAACACACAAAACTATACAAC [CACACA_site1475]” was 9.04 ± 0.36.
Regarding “ATATAAGAACAAAATTGTACATAAATATTTATATAA [XGTACX_site7404]”, the “gcPBM binding intensity (ln)” value amounted to 8.74 ± 0.49.
To “ATAAATCAAAGGCACACACACAAAAAAAAAAAAAAA [CACACA_site160]” belongs 9.62 ± 0.49; to “TGTTTTTTATATTACTGTACATGTTTTGGAATAATA [XGTACX_site4716]”, 8.75 ± 0.4; to “AGTTTTATGTAGTGTTGTACTTTATACAAATATATT [XGTACX_site614]”, 8.94 ± 0.41.
The value for “GCGGGTTTATCTTTCGCACACCTTACATTTTAGAAT [CACACA_site2015]” was 9.02 ± 0.42.
To “ATATCACATTCCACGGTACACACTAAAAGAAAAATC [CACACA_site3611]” belongs 9.06 ± 0.45; to “AACAAAAATAGAAACACACATACATTGGTTTTCTTT [CACACA_site2534]”, 8.88 ± 0.42.
On to “TATTTTTGTATATATTTATTCTTATTTTACAGGAAA [TGCATGCA_negctrl_site472]”, for which the “gcPBM binding intensity (ln)” value is 8.44 ± 0.55.
Consider “ACATTTAAGTTTAGCTGTACATATTCATCATAATTA [XGTACX_site37]”, for which the “gcPBM binding intensity (ln)” value was found to be 8.79 ± 0.32.
On to “GTATCATTAAATTATTGTACATATATATATATATAT [XGTACX_site8809]”, for which the “gcPBM binding intensity (ln)” value was 9.315 ± 0.064.
To “TATTCCTTCTACAATTAAATAATTATAATAAATATA [GTGCAC_negctrl_site26]” belongs 8.1 ± 0.41; to “AAAAAAAAATAATATTGTACACACATAAATTCTTTG [XGTACX_site4315]”, 8.82 ± 0.49.
To “TTAATTAATAGACACACACACATATAAATATAGATT [CACACA_site7143]” belongs 9.6 ± 0.3.
The value for “GTTTTATTAAAAATGTGTACTTAATTATGAAAAAAA [XGTACX_site4689]” was 8.21 ± 0.47.
For “GTGTATTTTCTGCGCACACACATGCAAAAAGAAATA [CACACA_site1148]”, the “gcPBM binding intensity (ln)” value amounted to 9.35 ± 0.42.
Turning to “TTTTTTATTGTGATACGTATATTATTTTTTGATAAA [CACACA_negctrl_site1]”, the “gcPBM binding intensity (ln)” value was 8.51 ± 0.42.
For the sequence “TATATTTACATTGTAACACACATGAAATATATATAT [CACACA_site61]”, the “gcPBM binding intensity (ln)” value was 8.74 ± 0.4.
The value for “TGTTGTAAATATGTTTGTACATAAATATATTATTTA [XGTACX_site5442]” was 8.45 ± 0.43; that for “TATTGTTTTGATTGATGTACATGTTTAAAATATATA [XGTACX_site8430]” was 8.76 ± 0.36.
For “AAAGTAAATTTAAGCACACACAACGAACTTTTATAC [CACACA_site7008]”, the “gcPBM binding intensity (ln)” value turned out to be 9.37 ± 0.32.
To “TAATCTATTTATATGTGTACCTATTTAGAAATGACA [XGTACX_site5709]” belongs 8.5 ± 0.45; to “AAGAAAAAATATAATAATAATAAAATATATATAATA [TGCATGCA_negctrl_site475]”, 8.59 ± 0.64.
For the sequence “TTTGTTTTTCATAGTGCACACATAACCAAAAATAGT [CACACA_site9030]”, the “gcPBM binding intensity (ln)” value was 8.91 ± 0.32.
On to “ATATATATATATATATGTACATATTATATATGAACG [XGTACX_site1585]”, for which the “gcPBM binding intensity (ln)” value was 9.27 ± 0.52.
The value for “ATATATTTTTTTTCTTCACACACATGAATTATATAT [CACACA_site9053]” was 9.39 ± 0.4.
Take “AATAATAGAAAAAGGTGTACTTATAAACATATACAC [XGTACX_site6921]”: the “gcPBM binding intensity (ln)” value came to 8.82 ± 0.49.
To “GTAATTATTATTAATAGTACACACTATGGCATTTCA [XGTACX_site5192]” belongs 8.85 ± 0.31; to “TATATTAATAGACACACACACATATTTATATTTATA [CACACA_site6859]”, 9.55 ± 0.28.
The value for “TACTGTGATAGCACCACACACGCAAAAGTGAGTATA [CACACA_site1109]” was 9.01 ± 0.35; that for “TATATTTAGTAAAAAGGTACCATTCTTATTTATATT [CACACA_negctrl_site1165]” was 8.51 ± 0.49; that for “TTTCAGCCAAACGATAAACTACGACACTTGAACGAA [CACACA_negctrl_site1747]” was 8.71 ± 0.33.
Take “TAAGGCCCTTTTCATCGTACAGTAAAATATAAATAA [XGTACX_site1278]”: the “gcPBM binding intensity (ln)” value is 8.37 ± 0.39.
The value for “CATACTGTGATAGCACCACACACGCAAAAGAGGGTA [CACACA_site8285]” was 9.19 ± 0.42; that for “CAAATACATGTGTAAAGTACATATTAATAAGTCTTT [XGTACX_site6342]” was 8.96 ± 0.32.
To “AATTTAACCCATTTTATAATTATTACCACTATATAT [TGCATGCA_negctrl_site452]” belongs 8.83 ± 0.44.
The value for “GAAAATTCTTAAGGCACACACATATATAATATATAC [CACACA_site569]” was 9.19 ± 0.35.
As to “ATTTTTTTTTTTATGTGTACATATATTTTTTTAATT [XGTACX_site7921]”, the “gcPBM binding intensity (ln)” value came to 9 ± 0.54.
The value for “ATTTAATTTATAAAAACACACACAGGTAAAAAGGTG [CACACA_site8306]” was 9.28 ± 0.36.

(Values after the supplement of paper PMC11417369.)
